Patent publication US20230414771A1, “PREPARATION AND USE OF IMMUNOSTIMULATORY CONJUGATED COMPLEXES FOR TARGETED DELIVERY AND ACTIVATION” (YAFEI SHANGHAI BIOLOGY MEDICINE SCIENCE & TECHNOLOGY CO., …, priority 2020, published 2023)

Experiment: Water solubility test (observation and HPLC)
Format: physicochemical
Conditions: thermodynamic from solid; lyophilized compound dissolved in water; checked by observation and HPLC (>95%)
Description: The compounds prepared in accordance with the examples of the disclosure and the reference compounds C1, C2, C3 and C4 were lyophilized (−70° C.).

Row | SMILES | solubility [µg/mL]
1 | CC(NC(=O)CCOCCOCCOCCNC(=O)CCCN1C(=O)C=CC1=O)C(=O)NC(C)C(=O)NC(CC(N)=O)C(=O)Nc1ccc(COC(=O)N2CC3(C2)C(=O)[O][Pt-2]([NH3+])([NH3+])[O]C3=O)cc1 (centres unmarked) [QHL-101-N-CBP] | > 20000
2 | COc1cccc2c1C(=O)c1c(O)c3c(c(O)c1C2=O)C[C@@](O)(C(=O)CO)C[C@@H]3O[C@H]1C[C@H](NC(=O)[C@H](CC(C)C)NC(=O)[C@H](CC(N)=O)NC(=O)[C@H](C)NC(=O)[C@H](C)NC(=O)[C@H](CO)NC(=O)CCCCCN2C(=O)C=CC2=O)[C@H](O)[C@H](C)O1 [QHL-129-DOX] ({Hexanoyl(6-maleimido)}-SAANL-{Doxorubicin(3'-N)}) | > 5000
3 | COc1cccc2c1C(=O)c1c(O)c3c(c(O)c1C2=O)C[C@@](O)(C(=O)CO)C[C@@H]3O[C@H]1C[C@H](N)[C@H](O)[C@H](C)O1 [DOX, doxorubicin, reference compound] | < 1000
4 | C[C@H](NC(=O)CCOCCOCCN1C(=O)C=CC1=O)C(=O)N[C@@H](C)C(=O)N[C@H](CC(N)=O)C(=O)Nc1ccc(COC(=O)OCC(=O)[C@]2(O)CCC3[C@H]4CCC5=CC(=O)C=C[C@@]5(C)C4C(=O)C[C@]32C)cc1 (some centres unmarked) [QHL-005-prednisone] | > 10000
5 | CC[C@H](C)[C@H](NC(=O)CCCCCN1C(=O)C=CC1=O)C(=O)N[C@@H](C)C(=O)N[C@@H](C)C(=O)N[C@@H](CC(N)=O)C(=O)N[C@@H](CC(C)C)C(=O)N[C@H]1C[C@H](O[C@H]2C[C@](O)(C(=O)CO)Cc3c(O)c4c(c(O)c32)C(=O)c2c(OC)cccc2C4=O)O[C@@H](C)[C@H]1O [QHL-125-DOX] ({Hexanoyl(6-maleimido)}-IAANL-{Doxorubicin(3'-N)}) | > 2000
6 | CC(NC(=O)CN1C(=O)C=CC1=O)C(=O)NC(C)C(=O)NC(CC(N)=O)C(=O)Nc1ccc(COC(=O)N2CC3(C2)C(=O)[O][Pt-2]([NH3+])([NH3+])[O]C3=O)cc1 (centres unmarked) [QHL-146-N-CBP] | > 20000
7 | COc1cccc2c1C(=O)c1c(O)c3c(c(O)c1C2=O)C[C@@](O)(C(=O)CO)C[C@@H]3O[C@H]1C[C@H](NC(=O)[C@H](CC(C)C)NC(=O)[C@H](CC(N)=O)NC(=O)[C@H](C)NC(=O)[C@H](C)NC(=O)[C@H](CC(=O)O)NC(=O)CCOCCOCCOCCOCCOCCOCCNC(=O)CCN2C(=O)C=CC2=O)[C@H](O)[C@H](C)O1 [QHL-060-DOX] ({Propanoyl(3-maleimido)-PEG6}-DAANL-{Doxorubicin(3'-N)}) | > 25000
8 | COc1cccc2c1C(=O)c1c(O)c3c(c(O)c1C2=O)C[C@@](O)(C(=O)CO)C[C@@H]3O[C@H]1C[C@H](NC(=O)[C@H](CC(C)C)NC(=O)[C@H](CC(N)=O)NC(=O)[C@H](C)NC(=O)[C@H](C)NC(=O)[C@H](CCC(=O)O)NC(=O)CCOCCOCCOCCOCCOCCOCCNC(=O)CCN2C(=O)C=CC2=O)[C@H](O)[C@H](C)O1 [QHL-057-DOX] ({Propanoyl(3-maleimido)-PEG6}-EAANL-{Doxorubicin(3'-N)}) | > 25000
9 | COc1cccc2c1C(=O)c1c(O)c3c(c(O)c1C2=O)C[C@@](O)(C(=O)CO)C[C@@H]3O[C@H]1C[C@H](NC(=O)[C@H](CC(C)C)NC(=O)[C@H](CC(N)=O)NC(=O)[C@H](C)NC(=O)[C@H](C)NC(=O)[C@H](CCSC)NC(=O)CCCCCN2C(=O)C=CC2=O)[C@H](O)[C@H](C)O1 [QHL-126-DOX] ({Hexanoyl(6-maleimido)}-MAANL-{Doxorubicin(3'-N)}) | > 2000
10 | COc1cccc2c1C(=O)c1c(O)c3c(c(O)c1C2=O)C[C@@](O)(C(=O)CO)C[C@@H]3O[C@H]1C[C@H](NC(=O)[C@H](CC(C)C)NC(=O)[C@H](CC(N)=O)NC(=O)[C@H](C)NC(=O)[C@H](C)NC(=O)[C@H](CC(=O)O)NC(=O)CCCCCN2C(=O)C=CC2=O)[C@H](O)[C@H](C)O1 [QHL-120-DOX] ({Hexanoyl(6-maleimido)}-DAANL-{Doxorubicin(3'-N)}) | > 10000
11 | CC(C)C[C@H](NC(=O)[C@H](CC(N)=O)NC(=O)[C@H](C)NC(=O)[C@H](C)NC(=O)CCOCCOCCOCCOCCOCCOCCNC(=O)CCCN1C(=O)C=CC1=O)C(=O)N1CC2(C1)C(=O)[O][Pt-2]([NH3+])([NH3+])[O]C2=O [QHL-108-N-CBP] ({Butanoyl(4-maleimido)-PEG6}-AANL-X4) | > 10000
12 | CC(C)CC(NC(=O)C(CC(N)=O)NC(=O)[C@@H](C)NC(=O)[C@@H](C)NC(=O)CCOCCOCCOCCNC(=O)CCN1C(=O)C=CC1=O)C(=O)N(C)CCNC(=O)c1cc(Oc2ccc(NC(=O)Nc3ccc(Cl)c(C(F)(F)F)c3)cc2)ccn1 (some centres unmarked) [QHL-090-compound a] ({Propanoyl(3-maleimido)-PEG3}-[dA][dA][ξN][ξL]-X10) | > 10000
13 | COc1cccc2c1C(=O)c1c(O)c3c(c(O)c1C2=O)C[C@@](O)(C(=O)CO)C[C@@H]3O[C@H]1C[C@H](NC(=O)[C@H](CC(C)C)NC(=O)[C@H](CC(N)=O)NC(=O)[C@H](C)NC(=O)[C@H](C)NC(=O)[C@H](CC(N)=O)NC(=O)CCCCCN2C(=O)C=CC2=O)[C@H](O)[C@H](C)O1 [QHL-133-DOX] ({Hexanoyl(6-maleimido)}-NAANL-{Doxorubicin(3'-N)}) | > 2000
14 | COc1cccc2c1C(=O)c1c(O)c3c(c(O)c1C2=O)C[C@@](O)(C(=O)CO)C[C@@H]3O[C@H]1C[C@H](NC(=O)[C@H](CC(C)C)NC(=O)[C@H](CC(N)=O)NC(=O)[C@H](C)NC(=O)[C@H](C)NC(=O)[C@H](CS)NC(=O)CCCCCN2C(=O)C=CC2=O)[C@H](O)[C@H](C)O1 [QHL-131-DOX] ({Hexanoyl(6-maleimido)}-CAANL-{Doxorubicin(3'-N)}) | > 10000
15 | COc1cccc2c1C(=O)c1c(O)c3c(c(O)c1C2=O)C[C@@](O)(C(=O)CO)C[C@@H]3O[C@H]1C[C@H](NC(=O)[C@H](CC(C)C)NC(=O)[C@H](CC(N)=O)NC(=O)[C@H](C)NC(=O)[C@H](C)NC(=O)[C@H](CCCNC(=N)N)NC(=O)CCCCCN2C(=O)C=CC2=O)[C@H](O)[C@H](C)O1 [QHL-136-DOX] ({Hexanoyl(6-maleimido)}-RAANL-{Doxorubicin(3'-N)}) | > 2000
16 | COc1cccc2c1C(=O)c1c(O)c3c(c(O)c1C2=O)C[C@@](O)(C(=O)CO)C[C@@H]3O[C@H]1C[C@H](NC(=O)[C@H](CC(C)C)NC(=O)[C@H](CC(N)=O)NC(=O)[C@H](C)NC(=O)[C@H](C)NC(=O)[C@H](CCC(=O)O)NC(=O)CCCCCN2C(=O)C=CC2=O)[C@H](O)[C@H](C)O1 [QHL-117-DOX] ({Hexanoyl(6-maleimido)}-EAANL-{Doxorubicin(3'-N)}) | > 10000
17 | COc1cccc2c1C(=O)c1c(O)c3c(c(O)c1C2=O)C[C@@](O)(C(=O)CO)C[C@@H]3O[C@H]1C[C@H](NC(=O)[C@H](CC(C)C)NC(=O)[C@H](CC(N)=O)NC(=O)[C@H](C)NC(=O)[C@H](C)NC(=O)[C@H](CC(=O)O)NC(=O)CCOCCOCCNC(=O)CCCN2C(=O)C=CC2=O)[C@H](O)[C@H](C)O1 [QHL-066-DOX] ({Butanoyl(4-maleimido)-PEG2}-DAANL-{Doxorubicin(3'-N)}) | > 15000
18 | C[C@H](NC(=O)C(CCC(=O)O)NC(=O)CCCCCN1C(=O)C=CC1=O)C(=O)N[C@@H](C)C(=O)N[C@@H](CC(N)=O)C(=O)Nc1ccc(COC(=O)OCC(=O)[C@]2(O)CCC3[C@H]4CCC5=CC(=O)C=C[C@@]5(C)C4C(=O)C[C@]32C)cc1 (some centres unmarked) [QHL-116-prednisone] ({Hexanoyl(6-maleimido)}-[ξE]AAN[PABC]-X6) | > 10000
19 | CO[C@@]12[C@@H]3N[C@@H]3CN1C1=C(C(=O)C(NC(=O)OCc3ccc(NC(=O)[C@@H](CC(N)=O)NC(=O)[C@@H](C)NC(=O)[C@@H](C)NC(=O)CCOCCOCCOCCNC(=O)CCN4C(=O)C=CC4=O)cc3)=C(C)C1=O)[C@@H]2COC(N)=O [QHL-089-mitomycin] | > 20000
20 | CC(C)CC(NC(=O)[C@@H](CC(N)=O)NC(=O)[C@@H](C)NC(=O)[C@@H](C)NC(=O)CCOCCOCCNC(=O)CCN1C(=O)C=CC1=O)C(=O)N(C)CCNC(=O)c1cc(Oc2ccc(NC(=O)Nc3ccc(Cl)c(C(F)(F)F)c3)c(F)c2)ccn1 (some centres unmarked) [QHL-087-compound b] ({Propanoyl(3-maleimido)-PEG2}-[dA][dA][dN][ξL]-X5) | > 10000
21 | CO[C@@]12[C@H](COC(N)=O)C3=C(C(=O)C(C)=C(NC(=O)[C@H](CC(C)C)NC(=O)[C@H](CC(N)=O)NC(=O)[C@H](C)NC(=O)[C@H](C)NC(=O)CCOCCOCCOCCNC(=O)CCN4C(=O)C=CC4=O)C3=O)N1C[C@@H]1N[C@@H]12 [QHL-090-mitomycin] ({Propanoyl(3-maleimido)-PEG3}-AANL-X7) | > 10000
22 | COc1cccc2c1C(=O)c1c(O)c3c(c(O)c1C2=O)C[C@@](O)(C(=O)CO)C[C@@H]3O[C@H]1C[C@H](NC(=O)[C@H](CC(C)C)NC(=O)[C@H](CC(N)=O)NC(=O)[C@H](C)NC(=O)[C@H](C)NC(=O)CCOCCOCCNC(=O)CCCN2C(=O)C=CC2=O)[C@H](O)[C@H](C)O1 [QHL-099-DOX] ({Butanoyl(4-maleimido)-PEG2}-AANL-{Doxorubicin(3'-N)}) | > 20000
23 | COc1cccc2c1C(=O)c1c(O)c3c(c(O)c1C2=O)C[C@@](O)(C(=O)CO)C[C@@H]3O[C@H]1C[C@H](NC(=O)[C@H](CC(C)C)NC(=O)[C@H](CC(N)=O)NC(=O)[C@H](C)NC(=O)[C@H](C)NC(=O)CCOCCOCCOCCN2C(=O)C=CC2=O)[C@H](O)[C@H](C)O1 [QHL-010-DOX] (X1-AANL-{Doxorubicin(3'-N)}) | > 10000
24 | COc1cccc2c1C(=O)c1c(O)c3c(c(O)c1C2=O)C[C@@](O)(C(=O)CO)C[C@@H]3O[C@H]1C[C@H](NC(=O)[C@H](CC(C)C)NC(=O)[C@H](CC(N)=O)NC(=O)[C@H](C)NC(=O)[C@H](C)NC(=O)[C@H](CCC(=O)O)NC(=O)CCOCCOCCN2C(=O)C=CC2=O)[C@H](O)[C@H](C)O1 [QHL-021-DOX] (X3-EAANL-{Doxorubicin(3'-N)}) | > 20000
25 | C[C@H](NC(=O)CCCCCN1C(=O)C=CC1=O)C(=O)N[C@@H](C)C(=O)N[C@@H](CC(N)=O)C(=O)Nc1ccc(COC(=O)OCC(=O)[C@]2(O)CCC3[C@H]4CCC5=CC(=O)C=C[C@@]5(C)C4C(=O)C[C@]32C)cc1 (some centres unmarked) [QHL-140-prednisone] | > 10000
26 | C[C@@H](NC(=O)CCOCCOCCNC(=O)CCN1C(=O)C=CC1=O)C(=O)N[C@H](C)C(=O)N[C@H](CC(N)=O)C(=O)Nc1ccc(COC(=O)N(C)CCNC(=O)c2cc(Oc3ccc(NC(=O)Nc4ccc(Cl)c(C(F)(F)F)c4)c(F)c3)ccn2)cc1 [QHL-086-compound b] | > 20000

*1 amine or outer side, *2 acyl side, *3 side chain or, on linkers, in order; H or OH if unused. Where a SMILES comes first, the peptide text is derived from it. [ ]: non-standard residue; d: D form. The star is where a group is joined. ξ: configuration not given here. Doxorubicin(3'-N) = COc1cccc2c1C(=O)c1c(O)c3c(c(O)c1C2=O)C[C@@](O)(C(=O)CO)C[C@@H]3O[C@H]1C[C@H](N*)[C@H](O)[C@H](C)O1; X7 = CO[C@@]12[C@H](COC(N)=O)C3=C(C(=O)C(C)=C(N*)C3=O)N1C[C@@H]1N[C@@H]12; X5 = CN(CCNC(=O)c1cc(Oc2ccc(NC(=O)Nc3ccc(Cl)c(C(F)(F)F)c3)c(F)c2)ccn1)*; X6 = C[C@@]12C=CC(=O)C=C1CC[C@H]1C2C(=O)C[C@]2(C)C1CC[C@@]2(O)C(=O)CO*; X10 = CN(CCNC(=O)c1cc(Oc2ccc(NC(=O)Nc3ccc(Cl)c(C(F)(F)F)c3)cc2)ccn1)*; X4 = [NH3+][Pt-2]1([NH3+])[O]C(=O)C2(CN(*)C2)C(=O)[O]1; Hexanoyl(6-maleimido) = O=C1C=CC(=O)N1CCCCCC(=O)*; Butanoyl(4-maleimido) = O=C1C=CC(=O)N1CCCC(=O)*; Propanoyl(3-maleimido) = O=C1C=CC(=O)N1CCC(=O)*; X1 = O=C1C=CC(=O)N1CCOCCOCCOCCC(=O)*; PABC = O=C(OCc1ccc(N[*:1])cc1)[*:2]; PEG6 = NCCOCCOCCOCCOCCOCCOCCC(=O)O; X3 = O=C1C=CC(=O)N1CCOCCOCCC(=O)*; PEG3 = NCCOCCOCCOCCC(=O)O; ξE = NC(CCC(=O)O)C(=O)O; PEG2 = NCCOCCOCCC(=O)O; ξN = NC(=O)CC(N)C(=O)O; ξL = CC(C)CC(N)C(=O)O
